Reference: PMC4336329 (PLoS ONE, 2015)
Out of some 310,000 compounds screened, about 14,000 (4.5%) showed an effect of 50% or more. Effects have a minus sign here. Some of the results follow.

Each molecule was assayed against human ether-à-go-go-related gene (hERG) potassium channel (human, UniProt Q12809) (assay: primary screen, population patch clamp on CHO cells stably expressing hERG).
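Further: peak tail current of the secondary pulse compared with the same well before compound.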

human ether-à-go-go-related gene (hERG) potassium channel, sequence (Q12809 whole entry, looked up): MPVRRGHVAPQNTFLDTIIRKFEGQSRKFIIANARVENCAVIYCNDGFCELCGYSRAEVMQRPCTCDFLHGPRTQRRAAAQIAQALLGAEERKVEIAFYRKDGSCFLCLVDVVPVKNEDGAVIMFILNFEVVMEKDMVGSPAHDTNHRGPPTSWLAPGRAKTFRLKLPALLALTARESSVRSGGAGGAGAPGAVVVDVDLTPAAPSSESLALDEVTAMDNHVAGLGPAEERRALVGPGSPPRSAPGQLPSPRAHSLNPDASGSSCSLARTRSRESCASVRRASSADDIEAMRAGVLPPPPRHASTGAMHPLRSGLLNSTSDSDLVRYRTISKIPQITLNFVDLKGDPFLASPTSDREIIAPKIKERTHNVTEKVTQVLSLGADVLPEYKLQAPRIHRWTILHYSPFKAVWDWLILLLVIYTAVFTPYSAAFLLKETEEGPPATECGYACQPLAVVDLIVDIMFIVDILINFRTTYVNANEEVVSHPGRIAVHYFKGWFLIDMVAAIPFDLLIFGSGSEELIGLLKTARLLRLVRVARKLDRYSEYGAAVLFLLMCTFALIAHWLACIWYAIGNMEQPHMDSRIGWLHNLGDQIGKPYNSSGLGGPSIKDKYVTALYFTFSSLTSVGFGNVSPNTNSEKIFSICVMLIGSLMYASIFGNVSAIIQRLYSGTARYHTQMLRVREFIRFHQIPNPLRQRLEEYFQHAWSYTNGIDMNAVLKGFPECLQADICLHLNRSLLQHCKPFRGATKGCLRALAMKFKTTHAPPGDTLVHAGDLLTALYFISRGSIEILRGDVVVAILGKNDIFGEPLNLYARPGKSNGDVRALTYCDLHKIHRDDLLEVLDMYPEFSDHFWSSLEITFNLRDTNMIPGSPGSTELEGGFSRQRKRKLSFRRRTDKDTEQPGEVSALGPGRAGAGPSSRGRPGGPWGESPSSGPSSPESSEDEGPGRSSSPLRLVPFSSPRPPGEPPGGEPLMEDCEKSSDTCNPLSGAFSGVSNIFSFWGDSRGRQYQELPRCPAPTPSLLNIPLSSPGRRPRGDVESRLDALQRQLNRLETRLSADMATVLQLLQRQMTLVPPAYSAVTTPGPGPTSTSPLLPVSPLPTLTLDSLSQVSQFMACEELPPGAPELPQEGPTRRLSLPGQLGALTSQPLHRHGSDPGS

SMILES | hERG current change (%, negative = inhibition) at 10uM
COc1ccc(-c2noc(CCCC(=O)Nc3cccnc3)n2)cc1OC | -6.97%
O=C(Nc1cccc(F)c1)/C(=C\c1ccco1)NC(=O)c1cccs1 | -8.28%
C(#Cc1ccccc1)CN1CCN(c2ccccn2)CC1.Cl | -8.88%
CCN1CCN(c2nc(Nc3ccc(OC)cc3)nc(N)c2[N+](=O)[O-])CC1 | -32.2%
CCc1cc2c3c(c(=O)oc2cc1O)CCCC3 | 15.2%
O=S(=O)(c1ccccc1)c1nc(NCc2cccnc2)sc1Cl | -16.9%
CCOC(=O)c1cc(NC(=O)COc2ccc([N+](=O)[O-])cc2)cc(C(=O)OCC)c1 | -12.9%
CCC(=O)N1CCc2cc(S(=O)(=O)CCC(=O)Nc3ccc(C)c(F)c3)ccc21 | -0.224%
CCCCCOC(=O)Nc1ccc(S(=O)(=O)Nc2cccc([N+](=O)[O-])c2)cc1 | -4.77%
Clc1ccc(Cl)c(-c2nn3c(Cn4cnc5ccccc54)nnc3s2)c1 | 10.2%
CC(C)CCOc1cccc(OCC(=O)NC2CCS(=O)(=O)C2)c1 (stereo not drawn) | -13.2%
CC(C)c1ccccc1NC(=S)N1CCN(S(=O)(=O)c2cccs2)CC1 | 7.53%
CCOC(=O)c1cnc(SCc2nc(N)nc(Nc3ccccc3)n2)nc1N | 4.97%
CC1Oc2ccccc2C=C1/C=N/NC(=O)c1ccccc1O (stereo not drawn) | -4.16%
COc1ccc(/C(C)=N/N2CCOCC2)c(O)c1 | 2.21%
O=C(CC1NCCNC1=O)Nc1ccc2c(c1)OCO2 (stereo not drawn) | 0.941%
CCn1c(SCC(=O)c2cc(OC)ccc2OC)nnc1C1CC1 | 7.86%
CCN(CC#CCC1(O)c2ccccc2-c2ccccc21)CCO | 9.9%
CC1(C)CC(O)(CNCc2ccc3c(c2)OCO3)CCO1 (stereo not drawn) | 10.2%
CCOC(=O)c1ccccc1NS(=O)(=O)c1ccc(OCC)cc1 | -0.383%
Cc1cccc(C)c1OCCCCc1c(C)n[nH]c1C | -3.81%
COC(=O)CN1C(=O)C(O)(CC(=O)c2cccc(Br)c2)c2ccccc21 (stereo not drawn) | -11.7%

SMILES | hERG current change (%, negative = inhibition) at 10uM
N#CC1=C(N)Oc2n[nH]c(-c3ccc(F)cc3)c2C1c1cccc(OC(=O)N2CCOCC2)c1 (stereo not drawn) | 3.68%
Cc1cc(=O)oc2c(C)c(OCC(=O)N3CC[C@@]4(O)CCCC[C@H]4C3)ccc12 | -5.79%
CC(=O)N1c2ccccc2C2CCCC[C@@H]21 (stereo partly drawn) | 12.4%
Cc1ccc(C(=O)COC(=O)CCC(=O)Nc2ccccc2Cl)cc1[N+](=O)[O-] | 5.84%
O=C(CSc1nc2nn(-c3ccccc3)c(=O)c-2c2n1CCCCC2)c1ccc(O)c(O)c1 | -17.1%
CSCCC(NC(=O)c1ccc(=O)n(C)n1)c1nc2ccccc2[nH]1 (stereo not drawn) | -7.3%
CCN1CCN(c2cc(N3CCN(C(=O)c4ccco4)CC3)c3c4c(onc24)-c2ccccc2C3=O)CC1 | -32.6%
CC(=O)NC1=NN(C(C)=O)C(c2ccc(F)cc2)S1 (stereo not drawn) | 7.04%
Cc1ccc(S(=O)(=O)NNC(=O)c2ccoc2C)cc1 | -70.6%
CCOc1ccccc1-n1c(SCC(N)=O)nnc1-c1ccccc1 | -3.42%
CCOC(=O)C1=C(C)NC(=S)NC1c1ccc(OCC(=O)N2CCCCC2)cc1 (stereo not drawn) | 20.7%
c1ccc(COc2ccc(OCCOCCn3cncn3)cc2)cc1 | -23.4%
CC(C)(C)C1CCC(=NNC(=O)CN(c2ccccc2)S(=O)(=O)c2ccccc2[N+](=O)[O-])CC1 (stereo not drawn) | 6.69%
CCOc1ccc2oc(C(=O)NCc3nc4ccccc4[nH]3)c(C)c2c1 | 10.3%
CCCc1sc(N)nc1-c1ccc(C)cc1 | -5.87%
Cc1cnc(C(=O)OCC(=O)Nc2ccc(Br)cc2F)cn1 | 1.5%
C/C(=N\Nc1ccccc1)c1cccc(N)c1 | 14.6%
C=CCn1c(SCC(=O)Nc2ccccc2C)nnc1-c1ccncc1 | -5.51%
CNS(=O)(=O)c1ccc(NC(=O)c2ccoc2C)cc1 | -0.00162%
Cc1noc(NS(=O)(=O)c2ccc(NC(=O)CSc3nc4c(cc3C#N)CCCCC4)cc2)c1C | -10.8%
CC(C)Oc1cccc(C(=O)NC(=S)Nc2cccc(NC(=O)c3ccccc3Cl)c2)c1 | -11.9%
COC(=O)c1ccc(Nc2nc(C)nc3c2nnn3Cc2ccccc2)cc1 | 20.1%

SMILES | hERG current change (%, negative = inhibition) at 10uM
Cc1cc(OCCN2CCOCC2)ccc1Cl | 8.94%
Cc1cc(=O)n2[nH]c(-c3sccc3-n3c(C)ccc3C)cc2n1 | 1.24%
COc1ccc(-c2cc(C(=O)N3CCN(c4ccccc4)CC3)no2)cc1OC | 20.9%
COc1ccc(/C(C)=N/NC(=O)c2nc(C)cc(C)n2)cc1 | -6.63%
Cc1nn(CC(=O)Nc2ccc3c(c2)nc2n3CCOC2)c(=O)c2ccccc12 | 6.7%
C/C(=N\NC(=O)c1cccc(N/N=C(\C)c2ccncc2)c1)c1ccncc1 | -3.44%
COc1ccc(/C=C(/CC(=O)Nc2ccccc2)c2nc3ccccc3s2)cc1 | -1.37%
CCn1nnc(-c2ccccc2NC(=O)c2ccc(-n3cnnn3)cc2)n1 | -21.9%
O=C(Nc1nccs1)c1c(O)c2c(n(Cc3ccco3)c1=O)CCCC2 | -6.96%
COc1ccc(OC)c(S(=O)(=O)N2CCC(C(=O)NCc3ccc4c(c3)OCO4)CC2)c1 | -3.84%
Fc1ccc(Cn2nnc(-c3ccc(CN4CCOCC4)cc3)n2)cc1 | -27.1%
COc1ccc(OCCCC(=O)NCCc2nc3ccccc3[nH]2)cc1 | -1.29%
Cc1nc(Nc2ccccc2F)c2nnn(Cc3ccccc3Cl)c2n1 | 19.2%
COc1cc(C(=O)NNC(=S)Nc2ccc(S(N)(=O)=O)cc2)cc(OC)c1OC | 20.7%
COc1ccc(C2=NS(=O)(=O)N(C)C(C(=O)NCc3ccco3)=C2)cc1OC | -48.9%
CCn1nnnc1SCC(=O)N(C1CCCCC1)C1CCCCC1 | -15.6%
CC(NC(=O)/C(C#N)=C/c1cn(-c2ccccc2)nc1-c1ccc(F)cc1)c1ccccc1 (stereo not drawn) | 4.81%
CCOC(=O)C1=C(C)NC(C)=C(C(=O)OCC)C1c1cccc(C)n1 | 0.35%
COc1ccc(C)cc1-n1nnnc1SCC(=O)Nc1cc(C)on1 | -7.77%
O=C(CNC(=O)C1COc2ccccc2O1)N/N=C\c1ccc(Cl)cc1 (stereo not drawn) | -69.4%
NC(=O)c1sc2nc3c(c(-c4cccnc4)c2c1N)CCC3 | 3.91%
O=C(NNC(=O)c1ccccc1Br)c1cccc(Cl)c1 | -7.94%

SMILES | hERG current change (%, negative = inhibition) at 10uM
Clc1ccc2ncc(-c3nnnn3-c3ccccc3)c(-c3ccccc3)c2c1 | 9.63%
O=C1c2ccccc2C(=O)N1c1cccc2cccnc12 | 14%
CC(=O)O.Cc1ccc(C2C(C(=O)c3cccs3)=C(O)C(=O)N2c2ccc(S(N)(=O)=O)cc2)cc1 (stereo not drawn) | 16.5%
Cn1ncc(Cl)c1C(=O)Nc1ccc2c(c1)CCC2 | 15.5%
COc1ccc(N2CC(C(=O)Nc3ncccc3C)CC2=O)cc1 (stereo not drawn) | -2.08%
CCOc1ccc(CN2CCN(Cc3cnn(CC)c3C)CC2CCO)cc1 (stereo not drawn) | -67.8%
N#CC(=C1SC=CS1)c1nc(-c2ccccc2)cs1 | 9.47%
CCOc1cc(CNCCc2c[nH]c3ccccc23)cc(Cl)c1OC.Cl | 1.35%
Cc1ccc(/C=N\NC(=O)Cn2c(C)nc3ccccc32)o1 | -0.00632%
Cc1cc(C)nc(NS(=O)(=O)c2ccc(NC(=O)CCCN3C(=O)c4ccccc4C3=O)cc2)n1 | 2.6%
Cc1nn(CCCC(=O)N2CCc3ccccc3C2)c(=O)c2cc3sccc3n12 | -75.5%
COc1ccc(NS(=O)(=O)c2ccc3c(c2)NC(=O)CC(=O)N3)cc1OC | 16.1%
CC(=O)Nc1ccc(C(=O)COC(=O)C2CCCCC2)c(F)c1 | 10.6%
COc1ccc2cc3cc(C(=O)N4CCCC(C)C4)oc3nc2c1 (stereo not drawn) | 8.67%
COc1cccc(-c2sc3ccc(OC)cc3c2-c2cc(F)cc(OC)c2)c1 | 15%
O=C(Nn1cnc2ccccc2c1=O)c1ccc(F)cc1Cl | 10.9%
Cc1cc(C)n2nc(SCc3nnc(SCc4ccccc4)s3)nc2n1 | -28.6%
O=C1N(Cc2cccc(Cl)c2)C[C@@H]2C[C@@H](c3cccn3-c3nccs3)N3CCC[C@@]123 | -68%
CN(C)/C=C1/Nc2ccccc2C1=O | 10.7%
CC1CCN(C2=C(NS(=O)(=O)c3ccc(Br)cc3)C(=O)c3ccccc3C2=O)CC1 | -0.513%
Nc1n[nH]c(N)c1N=Nc1ccccc1F | 13%
